Earlier results as cited in PubChem BioAssay AID1259410 (Chemical Carcinogenesis Research Information System (CCRIS), 2018).
This continues a long series; more values of the same kind are listed elsewhere.

Test system: rodent tumor promotion studies, tumor incidence
Test: CCRIS tumor promotion studies
Settings: Route [Carcinogen]: DERMAL, Route [Promoter]: DERMAL, Species: MOUSE
From the text: The CCRIS database contains chemical records with carcinogenicity, mutagenicity, tumor promotion, and tumor inhibition test results. It was developed by the National Cancer Institute (NCI). Data are derived from studies cited in primary journals, current awareness tools, NCI reports, and other sources. Test results have been reviewed by experts in carcinogenesis and mutagenesis.
CCRIS provides historical information from the years 1985 - 2011. It is no longer updated.
This is an archive assay for CCRIS tumor promotion studies.

Compound: CCCCCCCCCCCCCC(=O)O[C@@H]1[C@@H](C)[C@@]2(O)[C@@H](C=C(CO)C[C@]3(O)C(=O)C(C)=C[C@@H]23)[C@@H]2C(C)(C)[C@]12OC(C)=O
- outcome (Carcinogen: ANTI-1,2,3,4-TETRAHYDRO-5,6-DIMETHYLCHRYSENE-1,2-DIOL-3,4-EPOXIDE, 139347-89-0, Carcinogen: ANTI-1,2,3,4-TETRAHYDRO-5,6-DIMETHYLCHRYSENE-1,2-DIOL-3,4-EPOXIDE, 139347-89-0, Doses [Carcinogen]: 0, 33, 100, 400 NMOL IN 0.1 ML ACETONE ONCE, Doses [Carcinogen]: 0, 33, 100, 400 NMOL IN 0.1 ML ACETONE ONCE, Doses [Promoter]: 2.5 UG IN 0.1 ML ACETONE 3/WK FOR 20 WK BEGINNING 10D POST CARCINOGEN DOSE (STUDY DURATION: 21.5 WK), Strain/Sex: CD-1/FEMALE): skin:tumor
- outcome (Carcinogen: ANTI-1,2,3,4-TETRAHYDRO-5-METHYLCHRYSENE-1,2-DIOL-3,4-EPOXIDE, 111901-39-4, Carcinogen: ANTI-1,2,3,4-TETRAHYDRO-5-METHYLCHRYSENE-1,2-DIOL-3,4-EPOXIDE, 111901-39-4, Doses [Carcinogen]: 0, 33, 100, 400 NMOL IN 0.1 ML ACETONE ONCE, Doses [Carcinogen]: 0, 33, 100, 400 NMOL IN 0.1 ML ACETONE ONCE, Doses [Promoter]: 2.5 UG IN 0.1 ML ACETONE 3/WK FOR 20 WK BEGINNING 10 D POST CARCINOGEN DOSE (STUDY DURATION: 21.5 WK), Strain/Sex: CD-1/FEMALE): skin: tumor
- outcome (Carcinogen: DELTAMETHRIN, 52918-63-5, Carcinogen: DELTAMETHRIN, 52918-63-5, Doses [Carcinogen]: 4 MG/KG IN 200 µL ACETONE 3/WK FOR 3 WK, Doses [Promoter]: 0, 5 UG IN 100 µL ACETONE 3/WK FOR 32 WK BEGINNING 1 WK POST CARCINOGEN TREATMENT (STUDY DURATION: 36 WK), Doses [Promoter]: 0, 5 UG IN 100 µL ACETONE 3/WK FOR 32 WK BEGINNING 1 WK POST CARCINOGEN TREATMENT (STUDY DURATION: 36 WK), Strain/Sex: SWISS/FEMALE): skin: tumor
- outcome (Carcinogen: DELTAMETHRIN, 52918-63-5, Carcinogen: DELTAMETHRIN, 52918-63-5, Doses [Carcinogen]: 4 MG/KG IN 200 µL ACETONE 3/WK FOR 3 WK, Doses [Promoter]: 0, 5 UG IN 100 µL ACETONE 3/WK FOR 32 WK BEGINNING 1 WK POST CARCINOGEN TREATMENT (STUDY DURATION: 36 WK), Doses [Promoter]: 0, 5 UG IN 100 µL ACETONE 3/WK FOR 32 WK BEGINNING 1 WK POST CARCINOGEN TREATMENT (STUDY DURATION: 36 WK), Strain/Sex: SWISS/MALE): skin: tumor
- outcome (Carcinogen: DELTAMETHRIN, 52918-63-5, Carcinogen: DELTAMETHRIN, 52918-63-5, Doses [Carcinogen]: 4 MG/KG IN 200 µL ACETONE ONCE, Doses [Promoter]: 0, 5 UG IN 100 µL ACETONE 3/WK FOR 32 WK BEGINNING 1 WK POST CARCINOGEN TREATMENT (STUDY DURATION: 33 WK), Doses [Promoter]: 0, 5 UG IN 100 µL ACETONE 3/WK FOR 32 WK BEGINNING 1 WK POST CARCINOGEN TREATMENT (STUDY DURATION: 33 WK), Strain/Sex: SWISS/FEMALE): skin: tumor
- outcome (Carcinogen: DELTAMETHRIN, 52918-63-5, Carcinogen: DELTAMETHRIN, 52918-63-5, Doses [Carcinogen]: 4 MG/KG IN 200 µL ACETONE ONCE, Doses [Promoter]: 0, 5 UG IN 100 µL ACETONE 3/WK FOR 32 WK BEGINNING 1 WK POST CARCINOGEN TREATMENT (STUDY DURATION: 33 WK), Doses [Promoter]: 0, 5 UG IN 100 µL ACETONE 3/WK FOR 32 WK BEGINNING 1 WK POST CARCINOGEN TREATMENT (STUDY DURATION: 33 WK), Strain/Sex: SWISS/MALE): skin: tumor
- outcome (Carcinogen: DIBENZO[A,L]PYRENE, 191-30-0, Carcinogen: DIBENZO[A,L]PYRENE, 191-30-0, Doses [Carcinogen]: 40 NMOLE IN 100 µL ACETONE ONCE, Doses [Promoter]: 10 NMOL IN 100 µL ACETONE 2/WK FOR 30 WK BEGINNING 1 WK POST CARCINOGEN DOSE (STUDY DURATION: 31 WK), Strain/Sex: NMRI/FEMALE): skin: tumor
- outcome (Carcinogen: DIBENZO[C,G]CARBAZOLE, 194-59-2, Carcinogen: DIBENZO[C,G]CARBAZOLE, 194-59-2, Doses [Carcinogen]: 200 NMOL IN 50 µL ACETONE ONCE, Doses [Promoter]: 0, 2 UG IN 50 µL ACETONE 2/WK FOR 28 WK BEGINNING IMMEDIATELY AFTER CARCINOGEN TREATMENT (STUDY DURATION: 28 WK), Doses [Promoter]: 0, 2 UG IN 50 µL ACETONE 2/WK FOR 28 WK BEGINNING IMMEDIATELY AFTER CARCINOGEN TREATMENT (STUDY DURATION: 28 WK), Strain/Sex: ICR/FEMALE): skin: papilloma and carcinoma
- outcome (Carcinogen: DIBENZ[C,H]ACRIDINE, 224-53-3, Carcinogen: DIBENZ[C,H]ACRIDINE, 224-53-3, Doses [Carcinogen]: 0, 50, 200 NMOL IN 0.2 ML ACETONE ONCE (STUDY DURATION: 150 D), Doses [Carcinogen]: 0, 50, 200 NMOL IN 0.2 ML ACETONE ONCE (STUDY DURATION: 150 D), Doses [Promoter]: 0, 16 NMOL IN 0.2 ML ACETONE 2/WK FOR 20 WK BEGINNING 10 D POST CARCINOGEN DOSE (STUDY DURATION: 150 D), Doses [Promoter]: 0, 16 NMOL IN 0.2 ML ACETONE 2/WK FOR 20 WK BEGINNING 10 D POST CARCINOGEN DOSE (STUDY DURATION: 150 D), Strain/Sex: CD-1/FEMALE): skin: papilloma
